# Among all 150,000 compounds or so, about 540 (0.36%) showed an effect of 50% or more. The list shows a part of the results.
# Tested on: Plasmodium falciparum
# Experiment: Primary screen in NF54 nanoGlo assay, in single point, at 2uM, 72h; a lower Z score goes with more inhibition
# Assay type: functional, Erythrocyte
# Conditions: timepoint 72 hour
SMILES,% Inhibition,Z score
COc1cncc(C(NC(=O)Cc2ccc(Cl)cc2)[C@H]2C[C@@H](O)C2)c1 (stereo partly specified),2%,-0.16
CC(C)c1cc(N(C)CCN(C)C2CCCC2)ncn1,-5%,0.72
CCOC(=O)N1CCC(NC(=O)c2oc(C)nc2C)CC1,-5%,0.92
O=C(Cn1c(-c2ccccc2)cc2ccccc21)N1CCC(C(=O)N2CCCCCC2)CC1,17%,-1.94
N#C[C@@H](NC(=O)CCc1cscn1)c1ccc(F)cc1F,-6%,0.79
O=C(c1ccccc1C(F)(F)F)N1CCN(c2nccs2)C(=O)C1,8%,-1.07
c1ccc(CN2C[C@H]3CC[C@@H](C2)N(Cc2cnc(N4CCCC4)s2)C3)cc1,2%,-0.26
O=C(Nc1cccc(F)c1)N1C[C@@H]2C[C@H](C1)c1c(-c3ccc4ccccc4c3)ccc(=O)n1C2,0%,-0.07
COC(=O)c1c(NC(=O)[C@H]2CCCN(S(=O)(=O)c3cnn(C)c3C)C2)cnn1C,38%,-5.44
COCCn1c(N)c(N(Cc2ccccc2)C(=O)Cn2c(C)cc3ccccc32)c(=O)[nH]c1=O,-11%,1.8
Cc1[nH]c([C@H]2CC(=O)N(CC(C)C)C2)nc1-c1ccc(Cl)cc1,-14%,1.73
Cc1ccc(CCC(=O)N2CC3CN(C)C(c4ccccc4)C3C2)o1 (stereo unspecified),10%,-1.12
Cc1c(C(=O)N(C)Cc2ccc(C3CC3C)o2)cnn1C (stereo unspecified),-2%,0.24
CC(=Cc1ccc(C)cc1)C(=O)N1CC(c2n[nH]c3c2COCC3)C1,-2%,0.19
Cn1nc(C(F)(F)F)cc1CS(=O)(=O)c1ccc2c(c1)CCC2,-11%,1.91
COCc1nc(C(=O)NCc2c(C)cc(C)[nH]c2=O)cs1,-12%,1.04
COCc1nn2c(c1-c1ccccc1)NC(=O)[C@@H]2CC(=O)Nc1cc(Cl)ccc1OC,13%,-1.92
Cc1nnsc1CN(C)C(=O)c1ccc(Cl)cc1,-11%,1.54
COc1ccc(NC(=O)C(F)(F)F)cc1OC,-9%,1.24
CC(O)C1CN(C(=O)C2CCCN2c2ccccc2)CCO1 (stereo unspecified),-5%,0.96
CN(C)C[C@H]1CN(CC(=O)N(C)Cc2ccsc2)CCO1,-7%,0.94
O=C(OCCOc1ccccc1)c1ccc2nccnc2c1,-2%,0.26
O=C(O)C(c1ccccc1Br)N1CCCC(n2ccnn2)C1 (stereo unspecified),-6%,0.96
Fc1ccc(-c2ccc(N3CCCC3)nn2)cc1Cl,-11%,2.16
Cc1ccc(-n2ccc(=O)c(C(=O)Nc3ccc(S(=O)(=O)Nc4nc(C)cc(C)n4)cc3)n2)cc1,1%,-0.13
Cc1noc(CCN[C@@H](C)c2ccc(S(C)(=O)=O)c(F)c2)n1,1%,-0.17
O=C(Nc1nc2n(n1)CCCC2)N1CC(c2ccccc2)C2COCCC21 (stereo unspecified),4%,-0.32

SMILES,% Inhibition,Z score
COC(=O)c1ccccc1NC(=O)c1ccc(-n2nnc3cccnc32)cc1Cl,-6%,0.73
Cc1cnn(-c2cnc3ccccc3c2)c1,-17%,1.67
O=C(CN1CCOCC1)N1CCN(C(=O)C2(c3cccc(Cl)c3)CCCCC2)CC1,1%,-0.14
CCCCc1nc(CN2CCC(CCC(=O)N(C)Cc3ccccc3)CC2)c[nH]1,-3%,0.33
O=C(NCc1ccc(F)cc1F)c1ccc(Oc2nccnc2N2CCCCC2)cc1,5%,-0.54
NC(=O)c1cc(NC(=O)c2nccnc2N)c[nH]1,-3%,0.61
O=C(c1nc2ccccc2s1)N1CCN(C(=O)c2cnn3c2CCCC3)CC1,-2%,0.25
C[C@@H](C1CCN(Cc2cn(C)nc2-c2ccccc2F)CC1)N1CCCC1,12%,-2.09
O=S(=O)(NCc1ccc(C(F)(F)F)nc1N1CCC(C(F)(F)F)CC1)C(F)(F)F,34%,-0.58
O=C(NC(C1CCCC1)C1CCCC1)N1CCO[C@@H](CO)C1,-4%,0.48
CC(=O)N1CCC(C(=O)N2CC[C@]34C(=O)N(Cc5cn(nn5)CCCOc5cccc(c5)[C@@H]23)c2ccccc24)CC1,-13%,1.43
CC(C)c1nsc(CN2CCC3(CC2)CC3(F)F)n1,-9%,1.64
CC(C)C[C@H]1C(=O)N2C[C@@H](N(C)C)C[C@H]2CN1C(=O)c1cccn1C,-9%,1.06
COC[C@H]1CCN(Cc2cn(-c3ccccc3C)nc2-c2ccc(OC)c(F)c2)C1,-4%,0.53
CC1(CO)CC(O)CN1CCCc1nc(-c2ccccc2)no1 (stereo unspecified),-4%,0.69
CC(=O)N1CCCN(C2CN(Cc3ccccc3Cl)CC2C)CC1 (stereo unspecified),-9%,1.1
CC(=O)N1CCc2cc(S(=O)(=O)N3CCCc4c(C)ccc(F)c43)ccc21,-11%,1.97
Cc1nc(CNS(=O)(=O)c2c(F)cccc2Cl)oc1C,-2%,0.17
CCS(=O)(=O)CCNC(=O)Nc1c(F)cccc1Cl,-13%,2.48
Cc1cc2n(n1)[C@H](C(F)(F)F)CCN2C(=O)CCc1ccco1,-11%,1.05
CC(C)CCNC(=O)N1CCN(c2nc3cccnc3n(C)c2=O)CC1,-5%,0.71
CC(=O)N1CCC(NCc2ccc(C)s2)C(C)C1 (stereo unspecified),-16%,1.78
Cc1scc(C(=O)NC2(CC(=O)O)CCOCC2)c1C,-8%,1.1
Cn1ncc2c(Nc3cnn(C(C)(C)C)c3)ncnc21,6%,-0.9
C#CCOc1ccc(C2Nc3ccc(CC)cc3[C@H]3OCC[C@@H]23)cc1 (stereo partly specified),-14%,2.26
O=C(NCc1cnoc1-c1ccc(F)cc1)c1ccncc1,9%,-1.02
